Measurements from patent publication US20230233697A1, “CYTOTOXIC BENZODIAZEPINE DERIVATIVES” (priority 2014, published 2023).

What was measured:
[1] = tested on: NCI-H1703 NSCLC xenografts; assay: Antitumor activity against NCI-H1703 NSCLC xenografts (Example 33); assay type: in vivo, mouse; settings: SCID mice
Procedure: Female CB.17 SCID mice, 6 weeks old, were received from Charles River Laboratories. Mice were inoculated with 5×10^6 NCI-H1703 tumor cells suspended in 0.2 ml 50% matrigel/serum free medium by subcutaneous injection in the right flank. When tumor volumes reached approximately 100 mm^3 (day 16 post inoculation), animals were randomized based on tumor volume into 4 groups of 6 mice each. Mice received a single IV administration of vehicle control (0.1 ml/mouse) or huML66-90 conjugate at 5, 20 or 50 μg/kg based on compound 90 concentration on day 1 (day 17 post inoculation).
Tumor size was measured twice to three times weekly in three dimensions using a caliper. The tumor volume was expressed in mm^3 using the formula V=Length×Width×Height×½. A mouse was considered to have a partial regression (PR) when tumor volume was reduced by 50% or greater, complete tumor regression (CR) when no palpable tumor could be detected. Tumor volume was determined by StudyLog software.
Tumor growth inhibition (T/C Value) was determined using the following formula:
T/C (%)=Median tumor volume of the treated/Median tumor volume of the control×100.
Tumor volume was determined simultaneously for treated (T) and the vehicle control (C) groups when tumor volume of the vehicle control reached predetermined size of 1000 mm^3. The daily median tumor volume of each treated group was determined, including tumor-free mice (0 mm^3). According to NCI standards, a T/C≤42% is the minimum level of anti-tumor activity. A T/C<10% is considered a high anti-tumor activity level.

Detroit-562 SCC-HN cells = assay: In vitro cytotoxic assay for huML66-90, Detroit-562; assay type: cell-based; settings: presence of excess unconjugated antibody
Procedure: The ability of huML66-90 conjugate to inhibit cell growth was measured using in vitro cytotoxicity assays. Target cells were plated at 1-2,000 cells per well in 100 μL in complete RPMI media (RPMI-1640, 10% fetal bovine serum, 2 mM glutamine, 1% penicillin-streptomycin, all reagents from Invitrogen). Antibodies were diluted into complete RPMI media using 3-fold dilution series and 100 μL were added per well. The final concentration typically ranged from 3×10^-8 M to 4.6×10-12 M. Cells were incubated at 37° C. in a humidified 5% CO2 incubator for 5-6 days. Viability of remaining cells was determined by colorimetric WST-8 assay (Dojindo Molecular Technologies, Inc., Rockville, Md., US). WST-8 is reduced by dehydrogenases in living cells to an orange formazan product that is soluble in tissue culture medium. The amount of formazan produced is directly proportional to the number of living cells. […] Plates were analyzed by measuring the absorbance at 450 nm (A450) in a multiwell plate reader. Background A450 absorbance of wells with media and WST-8 only was subtracted from all values. The percent viability was calculated by dividing each treated sample value by the average value of wells with untreated cells. […] Dose-response curves were generated by non-linear regression and the EC50 value of each curve was calculated using GraphPad Prism (GraphPad software, San Diego, Calif.). […]

NCI-H292 NSCLC cells = assay: In vitro cytotoxic assay for huML66-90, NCI-H292; assay type: cell-based; settings: for NCI-H292 EC40 in pM: NCI-H292 cells
Procedure: The ability of huML66-90 conjugate to inhibit cell growth was measured using in vitro cytotoxicity assays. Target cells were plated at 1-2,000 cells per well in 100 μL in complete RPMI media (RPMI-1640, 10% fetal bovine serum, 2 mM glutamine, 1% penicillin-streptomycin, all reagents from Invitrogen). Antibodies were diluted into complete RPMI media using 3-fold dilution series and 100 μL were added per well. The final concentration typically ranged from 3×10^-8 M to 4.6×10-12 M. Cells were incubated at 37° C. in a humidified 5% CO2 incubator for 5-6 days. Viability of remaining cells was determined by colorimetric WST-8 assay (Dojindo Molecular Technologies, Inc., Rockville, Md., US). WST-8 is reduced by dehydrogenases in living cells to an orange formazan product that is soluble in tissue culture medium. The amount of formazan produced is directly proportional to the number of living cells. WST-8 was added to 10% of the final volume and plates were incubated at 37° C. in a humidified 5% CO2 incubator for an additional 2-4 hours. Plates were analyzed by measuring the absorbance at 450 nm (A450) in a multiwell plate reader. Background A450 absorbance of wells with media and WST-8 only was subtracted from all values. The percent viability was calculated by dividing each treated sample value by the average value of wells with untreated cells. Percent viability=100*(A450 treated sample−A450 background)/(A450 untreated sample−A450 background). The percent viability value was plotted against the antibody concentration in a semi-log plot for each treatment. Dose-response curves were generated by non-linear regression and the EC50 value of each curve was calculated using GraphPad Prism (GraphPad software, San Diego, Calif.). In vitro cytotoxic activity

B1: huML66-90 (conjugate)
heavy: QVQLQESGPGLVKPSETLSLTCTVSGLSLASNSVSWIRQPPGKGLEWMGVIWNHGGTDYNPSIKSRLSISRDTSKSQVFLKMNSLTAADTAMYFCVRKGGIYFDYWGQGVLVTVSS[gap - human IgG1 constant region]
light: DTVLTQSPSLAVSPGERATISCRASESVSTLMHWYQQKPGQQPKLLIYLASHRESGVPARFSGSGSGTDFTLTIDPMEAEDTATYYCQQSRNDPWTFGQGTKLELKRTVAAPSVFIFPPSDEQLKSGTASVVCLLNNFYPREAKVQWKVDNALQSGNSQESVTEQDSKDSTYSLSSTLTLSKADYEKHKVYACEVTHQGLSSPVTKSFNRGEC
- anti-tumor activity level ([1]; single IV dose 20 μg/kg): highly active (A T/C<10% is considered a high anti-tumor activity level)
- anti-tumor activity level ([1]; single IV dose 50 μg/kg): highly active (A T/C<10% is considered a high anti-tumor activity level)
- minimal effective dose (MED) ([1]; single IV dose): 0.02 mg/kg
- EC50 (Detroit-562 SCC-HN cells): ~2 nM
- EC50 (NCI-H292 NSCLC cells; NCI-H292 NSCLC cells, presence of excess unconjugated antibody): ~2 nM
- NCI-H292 EC40 in pM (NCI-H292 NSCLC cells; 5-6 days, WST-8, no block (Table 1)): 12 pM
- NCI-H292 EC40 in pM (NCI-H292 NSCLC cells; + block (excess unconjugated antibody) (Table 1)): 1,570 pM
